Over roughly 33,000 sequences, “E-score (-0.5 to 0.5)” has its median near -0.036; the highest 2% begin near 0.37. The list shows a part of the results.
The sequences below were run against T1, Yer064c (UniProt P40041) (assay: PBM E-score (8-mer binding enrichment) (E-score (-0.5 to 0.5)); higher = stronger / more preferred TF binding; most listed sequences are background and not binding sites). Details: protein concentration: 200 nM; construct: GST-full length.
T1 sequence: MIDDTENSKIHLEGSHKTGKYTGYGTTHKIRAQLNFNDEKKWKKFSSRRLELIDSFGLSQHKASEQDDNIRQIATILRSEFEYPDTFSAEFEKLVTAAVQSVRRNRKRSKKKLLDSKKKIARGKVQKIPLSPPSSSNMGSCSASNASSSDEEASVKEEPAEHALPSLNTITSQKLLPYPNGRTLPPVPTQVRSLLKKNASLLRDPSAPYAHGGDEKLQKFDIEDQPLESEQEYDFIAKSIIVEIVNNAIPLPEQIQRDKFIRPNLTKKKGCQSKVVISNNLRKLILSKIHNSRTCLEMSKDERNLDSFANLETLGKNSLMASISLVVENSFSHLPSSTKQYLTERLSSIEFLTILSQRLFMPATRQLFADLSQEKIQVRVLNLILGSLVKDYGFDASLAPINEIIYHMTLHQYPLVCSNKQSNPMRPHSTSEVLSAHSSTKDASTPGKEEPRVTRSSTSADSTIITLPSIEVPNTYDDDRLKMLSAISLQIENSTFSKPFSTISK
Summary of the method: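 Yeast transcription factors carrying a GST tag, as full-length proteins or DNA-binding domains, were produced by PURExpress in vitro transcription/translation. About 100-200 nM protein was applied to universal all-10-mer Agilent arrays, double-stranded by primer extension on fresh or once-stripped slides. Bound protein was detected with fluorescent anti-GST, and scans were normalised with masliner. The Universal PBM Analysis Suite gave each ungapped eight-base word, pooled with its reverse complement, an E-score, a modified Wilcoxon-Mann-Whitney statistic.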

Sequence | PBM E-score
GGAATCAA | 0.257
GAGTACAA | 0.28
ATAGTGAA | 0.0239
CGGACAAC | -0.0568
CCCGAGCA | -0.215
CACATGAC | 0.36
AATAATGT | -0.0639
CGAACGGA | 0.109
ACAAACAT | -0.077
AAAAGCTG | -0.028
CCAGAGTC | 0.38
GTAACGCA | -0.107
CCAGCTAA | 0.00069
ATGTCTTA | 0.0357
ATTCAGTA | 0.13
ACACGGGT | 0.0218
ACCTACAC | -0.0901
GTGATGAA | -0.129
GACCGGCA | -0.0532
TCCCAAGA | 0.0948
GTAATGCA | -0.0968
AGCGGTGC | -0.322
GATATTAC | 0.138
CGCGTTTC | -0.23
AATCGTAT | 0.118

Sequence | PBM E-score
CTAGGCTA | -0.0986
AGCGGCAC | -0.239
CATGCAGA | -0.0406
AGGTGTAG | -0.00358
CGAGTAAA | 0.0104
AAATATTC | -0.0241
GGGTAACC | 0.0816
GTCTGGGA | -0.222
AAATAGAA | 0.0475
CCCTTGGC | -0.182
GGCACTAC | -0.152
CGATTTAG | 0.161
GTTCGTTA | 0.0641
GCGCTAAA | -0.089
AAGTCGGT | 0.0145
CGGTTGAG | 0.107
GGTACTGA | 0.0932
ACTATTCC | 0.144
ATGTGCGG | -0.123
GAGTCGCC | 0.439
ACGCCAAC | -0.129
ACCTTGCC | 0.0427
TGCTGGAA | -0.0443
GGCCGAGA | -0.0289
GTTACTGA | 0.0747

Sequence | PBM E-score
GGCGTTGA | -0.177
CAACACAG | 0.0802
AACGCGTA | -0.111
AGAACACG | -0.0797
ATAAACAA | 0.18
AGTTTGTG | -0.0474
CTCATGAA | 0.202
AGGGATAT | -0.312
CAGGGGCA | -0.103
CTCCTTCA | 0.0177
CCCATGGC | -0.0518
GTCAAACA | 0.0911
AATTTGCA | -0.245
GCGTAACA | -0.103
CATGTGCC | -0.0206
CCGTATCC | -0.286
ATCCACGG | -0.0371
GTCCCGTA | -0.137
CACACTAC | -0.0561
AATTTAAC | 0.0938
GTAGCATA | -0.262
TTAAAAAA | 0.242
GTAAGGAA | -0.0495
CGAGCGAG | 0.0814
CCGCTGGA | -0.207

Sequence | PBM E-score
CGTAATAC | 0.0719
ACCCCGTG | -0.204
ATTATTCG | 0.081
CTAATAAG | 0.04
ACCTGCAT | -0.202
AGGCAGTC | 0.213
GGTCCGCA | -0.264
ATCCTCAT | -0.0541
CCAACGTC | -0.197
CCTTCTCC | -0.264
CGACACGA | 0.0537
AACGAAGC | -0.00137
CTCAATTA | 0.235
ACATATTC | 0.0348
CAGACGGA | 0.0828
ACTAGCAT | 0.0427
AAACCTGT | 0.127
AGGCGTAA | -0.0376
AAGGCATG | -0.00376
CGCATACC | -0.0869
GAGTCGCA | 0.438
CAGGTGAG | 0.102
GGCAATGA | 0.173
AAAGTTTC | -0.0603
CTGACTTC | 0.392

Sequence | PBM E-score
GGCCCCAC | -0.343
CAAGTACA | -0.0184
CACGCTGG | -0.0438
CATCAGGG | -0.11
AGCAACCG | -0.0529
AATCGGCC | -0.161
CCGATCCA | -0.26
ACCCTCCA | -0.0773
AACGGGCT | -0.143
GGTGATTA | 0.447
ATCAGACA | 0.193
AACTTGCG | -0.056
CTAGTTAC | 0.0522
GTACATTA | -0.114
AAGGATTA | 0.0731
AGGTTGAC | 0.167
AGAGATTA | 0.117
ACCCGACG | -0.216
ACTAACCA | 0.268
GCGCCTAA | 0.0241
CATAGGAG | 0.129
CTCACAGC | 0.118
ACCAATTG | -0.0949
ATCTGCGG | -0.0265
CACCGAAA | 0.0512

Sequence | PBM E-score
ACGCCTCC | -0.238
ATCCCCAG | -0.21
AGAACCGG | -0.11
AAATCCTA | 0.0374
ACTGAAGA | 0.17
AGCCGTTG | 0.0482
AGGGGGAG | -0.257
CCGTTGCC | -0.095
CCCGGCGC | -0.18
ATCTGAAT | 0.207
ACAGGGAG | -0.0887
GGCTGTCA | -0.292
AGTGCAGG | -0.0536
CCGAACTC | 0.0416
AGATACCA | -0.0967
CCATGTAA | -0.0253
AGCGGAAA | -0.0127
ACTCTCAT | 0.112
ATACCTTA | -0.0105
TAAGGCAA | 0.00187
AGTGTTAG | 0.0331
TCAGGCCA | 0.0102
CCACGGCA | -0.163
AGTCATTG | 0.475
CTCCAGGC | -0.0681

Sequence | PBM E-score
CTTGCGGC | -0.2
GGCAGCAA | -0.355
AATCCCGG | -0.0977
GCGAACGA | 0.0793
CTTCTGCA | -0.191
GGCCGGCC | -0.232
ACACCCTC | 0.0117
ATGCGACA | -0.0273
ACAATTTA | 0.117
AACGCACG | -0.174
TCACACAA | 0.16
GAATCTGA | 0.195
AGCTTGCA | -0.165
ACGTCCGA | -0.1
AGTCTTAC | 0.415
CACGAGCC | -0.037
AAGTTTGA | 0.0608
AATCGTGT | 0.11
AAGATGTC | -0.0873
CTTTCCAA | -0.037
AAGCACAT | 0.0547
AGACGTCA | -0.0773
